The labels stand for the following.
B1: TEV protease; numbered along this chain (parent)
chain: MGESLFKGPRDYNPISSSICHLTNESDGHTTSLYGIGFGPFIITNKHLFRRNNGTLVVQSLHGVFKVKDTTTLQQHLVDGRDMIIIRMPKDFPPFPQKLKFREPQREERICLVTTNFQTKSMSSMVSDTSCTFPSGDGIFWKHWIQTKDGQCGSPLVSTRDGFIVGIHSASNFTNTNNYFTSVPKNFMELLTNQEAQQWVSGWRLNADSVLWGGHKVFMVKPEEPFQPVKEATQL

The assay covers variants of B1. Put plainly: raw area under fraction-flipped curve 0-4 h after induction (AUC4h, not background-subtracted), DNA-recorder readout of cleavage of the substrate (dimensionless); higher = more cleavage of the substrate by the protease variant. The settings on record: temperature: 34 °C; time window: 0-4 h after rhamnose induction. On the procedure:
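In vivo DNA recorder in E. coli TOP10(DE3) ΔrhaA at 34 °C. Each TEVp single-site mutant (parent TEVp 0) is paired with a single-site variant of the 7-mer TEVs (canonical ENLYFQ|S). The substrate sits between flexible linkers in a Bxb1-sfGFP-TEVs-SsrA fusion, so cleavage stabilises Bxb1 and speeds flipping of a recombination array, read by NGS. The value is the raw area under the fraction-flipped curve over 0-4 h after rhamnose induction (AUC4h), with ≥20 reads per time point. It is not background-subtracted; inactive controls average about 0.047.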

The other results are listed elsewhere or left out. The full chains were built here from the parent and the listed change. Values near 0.05 are background.
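Also: Bxb1 expression induced with 0.2% (w/v) L-rhamnose at OD600 near 0.5, cultures sampled hourly, flipped fraction per protease–substrate barcode pair counted by paired-end Illumina sequencing.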

As for MGESLFKGPRDYNPISSSICHLTNESDGHTTSLYGIGFGPFPITNKHLFRRNNGTLVVQSLHGVFKVKDTTTLQQHLVDGRDMIIIRMPKDFPPFPQKLKFREPQREERICLVTTNFQTKSMSSMVSDTSCTFPSGDGIFWKHWIQTKDGQCGSPLVSTRDGFIVGIHSASNFTNTNNYFTSVPKNFMELLTNQEAQQWVSGWRLNADSVLWGGHKVFMVKPEEPFQPVKEATQL [I42P], the “area with substrate ENLYFQA” value is 0.025, the “area with substrate ENLYFQC” value was determined as 0.0463, the “area with substrate ENLYFQD” value was 0.0389 and the “area with substrate ENLYFQF” value came out at 0.0304. Moreover, the “area with substrate ENLYFQK” value is 0.0403, the “area with substrate ENLYFQL” value was determined as 0.0411, the “area with substrate ENLYFQM” value was 0.0412 and the “area with substrate ENLYFQN” value is 0.0428. In addition, the “area with substrate ENLYFQQ” value came to 0.0485, the “area with substrate ENLYFQR” value was found to be 0.0476, the “area with substrate ENLYFQS” value was 0.0455 and the “area with substrate ENLYFQV” value is 0.0431. The “area with substrate ENLYFQW” value worked out at 0.0515 and the “area with substrate ENLYFQY” value stood at 0.0482.
For the variant MGESLFKGPRDYNPISSSICHLTNESDGHTTSLYGIGFGPFIITNKHLFRRNNGTLVVQSLHGVFKVKDTTTLQQHLVDGRDMIIIRMPKDFPPFPQKLKFREPQREERICLVTTNFQTKSMSSMVSDTSCTFPSGDGIFWKTWIQTKDGQCGSPLVSTRDGFIVGIHSASNFTNTNNYFTSVPKNFMELLTNQEAQQWVSGWRLNADSVLWGGHKVFMVKPEEPFQPVKEATQL [H143T], the “area with substrate ENLYFQA” value is 0.0606, the “area with substrate ENLYFQC” value worked out at 0.0982, the “area with substrate ENLYFQD” value was found to be 0.0554 and the “area with substrate ENLYFQF” value turned out to be 0.0618. Besides, the “area with substrate ENLYFQH” value stood at 0.0707, the “area with substrate ENLYFQI” value turned out to be 0.0615, the “area with substrate ENLYFQK” value was 0.0704 and the “area with substrate ENLYFQL” value is 0.0599. In addition, the “area with substrate ENLYFQM” value is 0.0732, the “area with substrate ENLYFQR” value stood at 0.0558, the “area with substrate ENLYFQS” value turned out to be 0.0807 and the “area with substrate ENLYFQT” value turned out to be 0.0587. The “area with substrate ENLYFQW” value was 0.0555.
With MGESLFKGPRDYNPISSSICHLTNESDGHTTSLYGIGFGPFIITNKHLFRRNNGTLVVQSLHGVFKVKDVTTLQQHLVDGRDMIIIRMPKDFPPFPQKLKFREPQREERICLVTTNFQTKSMSSMVSDTSCTFPSGDGIFWKHWIQTKDGQCGSPLVSTRDGFIVGIHSASNFTNTNNYFTSVPKNFMELLTNQEAQQWVSGWRLNADSVLWGGHKVFMVKPEEPFQPVKEATQL [T70V], the “area with substrate ENLYFQA” value amounted to 0.0784, the “area with substrate ENLYFQC” value stood at 0.0853, the “area with substrate ENLYFQF” value turned out to be 0.0565 and the “area with substrate ENLYFQH” value came to 0.0636. In addition, the “area with substrate ENLYFQI” value was determined as 0.0564, the “area with substrate ENLYFQK” value stood at 0.0588, the “area with substrate ENLYFQL” value was found to be 0.0544 and the “area with substrate ENLYFQM” value is 0.0683. The “area with substrate ENLYFQN” value is 0.0652, the “area with substrate ENLYFQQ” value is 0.0671, the “area with substrate ENLYFQR” value turned out to be 0.0643 and the “area with substrate ENLYFQS” value amounted to 0.0755. Also, the “area with substrate ENLYFQT” value came to 0.0685, the “area with substrate ENLYFQV” value turned out to be 0.0599, the “area with substrate ENLYFQW” value stood at 0.0604 and the “area with substrate ENLYFQY” value worked out at 0.0641.
Consider MGESLFKGPRDYNPISSSICHLTNESDGHTTSLYGIGFGPFIITNKHLFRRNNGHLVVQSLHGVFKVKDTTTLQQHLVDGRDMIIIRMPKDFPPFPQKLKFREPQREERICLVTTNFQTKSMSSMVSDTSCTFPSGDGIFWKHWIQTKDGQCGSPLVSTRDGFIVGIHSASNFTNTNNYFTSVPKNFMELLTNQEAQQWVSGWRLNADSVLWGGHKVFMVKPEEPFQPVKEATQL [T55H], for which the “area with substrate ENLYFQA” value came to 0.0778, the “area with substrate ENLYFQC” value came out at 0.115, the “area with substrate ENLYFQD” value stood at 0.081 and the “area with substrate ENLYFQH” value was determined as 0.0876. The “area with substrate ENLYFQI” value came out at 0.0581, the “area with substrate ENLYFQL” value worked out at 0.0744, the “area with substrate ENLYFQM” value worked out at 0.078 and the “area with substrate ENLYFQP” value turned out to be 0.0617. Also, the “area with substrate ENLYFQR” value is 0.0339, the “area with substrate ENLYFQS” value was 0.0994, the “area with substrate ENLYFQT” value turned out to be 0.0734 and the “area with substrate ENLYFQV” value turned out to be 0.0699. Further, the “area with substrate ENLYFQW” value was 0.0938 and the “area with substrate ENLYFQY” value was 0.074.
As to MGESLFKGPRDYNPISSSICHLTNESDGHATSLYGIGFGPFIITNKHLFRRNNGTLVVQSLHGVFKVKDTTTLQQHLVDGRDMIIIRMPKDFPPFPQKLKFREPQREERICLVTTNFQTKSMSSMVSDTSCTFPSGDGIFWKHWIQTKDGQCGSPLVSTRDGFIVGIHSASNFTNTNNYFTSVPKNFMELLTNQEAQQWVSGWRLNADSVLWGGHKVFMVKPEEPFQPVKEATQL [T30A], the “area with substrate ENLYFQA” value was 0.0777, the “area with substrate ENLYFQC” value stood at 0.14, the “area with substrate ENLYFQD” value was determined as 0.0706 and the “area with substrate ENLYFQE” value was 0.0449. In addition, the “area with substrate ENLYFQF” value was found to be 0.0571, the “area with substrate ENLYFQG” value amounted to 0.107, the “area with substrate ENLYFQH” value came to 0.0846 and the “area with substrate ENLYFQI” value turned out to be 0.0581. For the same variant, the “area with substrate ENLYFQK” value turned out to be 0.0804, the “area with substrate ENLYFQL” value was found to be 0.0597, the “area with substrate ENLYFQM” value is 0.0987 and the “area with substrate ENLYFQN” value was 0.103. Besides, the “area with substrate ENLYFQR” value was determined as 0.0545, the “area with substrate ENLYFQS” value is 0.106, the “area with substrate ENLYFQT” value was determined as 0.0958 and the “area with substrate ENLYFQV” value was determined as 0.0809. Further, the “area with substrate ENLYFQW” value stood at 0.0761.
As for MGESLFKGPRDYNPISSSICHLTNESDGHTTSLYGIGFGPFIITNKHLFRRNNGTLVVQSLHGVFKVKDTTTLQQHLVDGRDMIIIRMPKDFPPFPQKLKTREPQREERICLVTTNFQTKSMSSMVSDTSCTFPSGDGIFWKHWIQTKDGQCGSPLVSTRDGFIVGIHSASNFTNTNNYFTSVPKNFMELLTNQEAQQWVSGWRLNADSVLWGGHKVFMVKPEEPFQPVKEATQL [F101T], the “area with substrate ENLYFQA” value is 0.0552, the “area with substrate ENLYFQC” value stood at 0.0776, the “area with substrate ENLYFQH” value amounted to 0.0544 and the “area with substrate ENLYFQI” value was 0.0394. In addition, the “area with substrate ENLYFQK” value turned out to be 0.0874, the “area with substrate ENLYFQL” value came to 0.0503, the “area with substrate ENLYFQM” value was 0.0522 and the “area with substrate ENLYFQN” value came out at 0.0442. For the same variant, the “area with substrate ENLYFQR” value is 0.0376, the “area with substrate ENLYFQS” value came out at 0.0579, the “area with substrate ENLYFQT” value worked out at 0.0507 and the “area with substrate ENLYFQV” value came to 0.0604.
Regarding MGESLFKGPRDYNPISSSICHLTNESDGHTTSLYGIGFGPFIITNKHLFRRNNGTLVVQSLHGVFKVKDTTTLQQHLVDGRDMIIIRMPKDFPPFPQKLKFREPQREERICLVTTNFQTKSMSSMVSDTSCTFPSGDGIFWKHWIQTKDGQCGSPLVSTRDGFIVGIHSASNFTNTNNYFTSVPKNFMELVTNQEAQQWVSGWRLNADSVLWGGHKVFMVKPEEPFQPVKEATQL [L191V], the “area with substrate ENLYFQA” value was 0.0925, the “area with substrate ENLYFQC” value came to 0.0914, the “area with substrate ENLYFQG” value worked out at 0.0656 and the “area with substrate ENLYFQH” value was 0.0736. For the same variant, the “area with substrate ENLYFQL” value is 0.0568, the “area with substrate ENLYFQM” value came out at 0.0832, the “area with substrate ENLYFQN” value amounted to 0.0879 and the “area with substrate ENLYFQQ” value was 0.0619. The “area with substrate ENLYFQR” value worked out at 0.0623, the “area with substrate ENLYFQS” value stood at 0.0966, the “area with substrate ENLYFQT” value was 0.0494 and the “area with substrate ENLYFQY” value was 0.0911.
With MGESLFKGPRDYNPISSSICHLTNESDGHTTSLYGIGFGPFIITNKHLFRRNNGTLVVQSLHGVFKVKDTTTLQQHLVDGRDMIIIRMPKDFPPFPQKLKFREPQREERICLVTTNFQTKSMSSMVSDTSCTFPSGEGIFWKHWIQTKDGQCGSPLVSTRDGFIVGIHSASNFTNTNNYFTSVPKNFMELLTNQEAQQWVSGWRLNADSVLWGGHKVFMVKPEEPFQPVKEATQL [D137E], the “area with substrate ENLYFQA” value worked out at 0.0584, the “area with substrate ENLYFQC” value amounted to 0.127, the “area with substrate ENLYFQD” value came to 0.0764 and the “area with substrate ENLYFQG” value amounted to 0.109. Further, the “area with substrate ENLYFQH” value came to 0.0895, the “area with substrate ENLYFQK” value was determined as 0.0471, the “area with substrate ENLYFQL” value is 0.0678 and the “area with substrate ENLYFQM” value worked out at 0.087. Moreover, the “area with substrate ENLYFQN” value came to 0.0766, the “area with substrate ENLYFQQ” value amounted to 0.0661, the “area with substrate ENLYFQR” value was determined as 0.0651 and the “area with substrate ENLYFQS” value was found to be 0.112. Further, the “area with substrate ENLYFQT” value was 0.0779, the “area with substrate ENLYFQV” value turned out to be 0.0795 and the “area with substrate ENLYFQW” value came to 0.0816.

The values are drawn from the supplement of paper PMC12217912.
